According to the antibiotic and cytotoxicity screens of Wong et al. (2023):
Some of the results follow.

Assays:
[1] = test system: HSkMC (human skeletal muscle cells); experiment: cytotoxicity call (relative viability < 0.9); settings: 10 µM
[2] = test system: S. aureus RN4220; experiment: growth inhibition call (relative growth <= 0.2); settings: 50 µM

Compound | cytotoxicity call [1] | growth inhibition call [2]
CO[C@H]1CN(C)C(=O)c2cc(NC(=O)NC3CCCCC3)ccc2OC[C@@H](C)N(CCc2ccccc2)C[C@@H]1C | active | inactive
CNC[C@@H]1Oc2ccc(NS(=O)(=O)c3cn(C)cn3)cc2CC(=O)N([C@H](C)CO)C[C@@H]1C | inactive | inactive
COc1cc(C=CC(=O)O)cc(OC)c1OC | inactive | inactive
Cc1noc(C)c1S(=O)(=O)Nc1ccc2c(c1)C(=O)N([C@H](C)CO)C[C@@H](C)[C@H](CN(C)Cc1ccccc1)OCCCC[C@H](C)O2 | inactive | inactive
C[C@H](CO)N1C[C@H](C)[C@H](CN(C)Cc2ccc(C(=O)Nc3ccccc3N)cc2)Oc2c(NC(=O)c3ccc(-c4nccs4)cc3)cccc2C1=O | inactive | inactive
COc1ccc(S(=O)(=O)Nc2ccc3c(c2)C(=O)N([C@@H](C)CO)C[C@H](C)[C@@H](CN(C)C(=O)Nc2cccc4ccccc24)OCCCC[C@H](C)O3)cc1 | inactive | inactive
CC(CCC(=O)O)C1CCC2C3C(O)CC4CC(O)CCC4(C)C3CCC12C (configuration not stated) | inactive | inactive
Clc1ccc(/C=C/C2=Nc3cccc4cccc(c34)N2)cc1 | inactive | inactive
C[C@@H]1CCCCO[C@@H](CN(C)Cc2ccc3c(c2)OCO3)[C@H](C)CN([C@@H](C)CO)C(=O)c2cc(NC(=O)C3CCCCC3)ccc2O1 | inactive | inactive
O=C(O)c1c(Br)c(Br)c(Br)c(Br)c1-c1c2ccc(=O)cc-2oc2cc(O)ccc12 | inactive | active
C[C@H](CO)N1C[C@H](C)[C@H](CN(C)S(=O)(=O)c2ccccc2)Oc2ccc(NC(=O)c3ccncc3)cc2C1=O | inactive | inactive
